Screen size: about 310,000 compounds; about 2,200 (0.71%) showed an effect of 50% or more. Effects have a minus sign here. The list shows a part of the results.

The experiment deals with human ether-à-go-go-related gene (hERG) potassium channel (human, UniProt Q12809). Briefly: primary screen, population patch clamp on CHO cells stably expressing hERG.
Chain of human ether-à-go-go-related gene (hERG) potassium channel (Q12809 whole entry, looked up): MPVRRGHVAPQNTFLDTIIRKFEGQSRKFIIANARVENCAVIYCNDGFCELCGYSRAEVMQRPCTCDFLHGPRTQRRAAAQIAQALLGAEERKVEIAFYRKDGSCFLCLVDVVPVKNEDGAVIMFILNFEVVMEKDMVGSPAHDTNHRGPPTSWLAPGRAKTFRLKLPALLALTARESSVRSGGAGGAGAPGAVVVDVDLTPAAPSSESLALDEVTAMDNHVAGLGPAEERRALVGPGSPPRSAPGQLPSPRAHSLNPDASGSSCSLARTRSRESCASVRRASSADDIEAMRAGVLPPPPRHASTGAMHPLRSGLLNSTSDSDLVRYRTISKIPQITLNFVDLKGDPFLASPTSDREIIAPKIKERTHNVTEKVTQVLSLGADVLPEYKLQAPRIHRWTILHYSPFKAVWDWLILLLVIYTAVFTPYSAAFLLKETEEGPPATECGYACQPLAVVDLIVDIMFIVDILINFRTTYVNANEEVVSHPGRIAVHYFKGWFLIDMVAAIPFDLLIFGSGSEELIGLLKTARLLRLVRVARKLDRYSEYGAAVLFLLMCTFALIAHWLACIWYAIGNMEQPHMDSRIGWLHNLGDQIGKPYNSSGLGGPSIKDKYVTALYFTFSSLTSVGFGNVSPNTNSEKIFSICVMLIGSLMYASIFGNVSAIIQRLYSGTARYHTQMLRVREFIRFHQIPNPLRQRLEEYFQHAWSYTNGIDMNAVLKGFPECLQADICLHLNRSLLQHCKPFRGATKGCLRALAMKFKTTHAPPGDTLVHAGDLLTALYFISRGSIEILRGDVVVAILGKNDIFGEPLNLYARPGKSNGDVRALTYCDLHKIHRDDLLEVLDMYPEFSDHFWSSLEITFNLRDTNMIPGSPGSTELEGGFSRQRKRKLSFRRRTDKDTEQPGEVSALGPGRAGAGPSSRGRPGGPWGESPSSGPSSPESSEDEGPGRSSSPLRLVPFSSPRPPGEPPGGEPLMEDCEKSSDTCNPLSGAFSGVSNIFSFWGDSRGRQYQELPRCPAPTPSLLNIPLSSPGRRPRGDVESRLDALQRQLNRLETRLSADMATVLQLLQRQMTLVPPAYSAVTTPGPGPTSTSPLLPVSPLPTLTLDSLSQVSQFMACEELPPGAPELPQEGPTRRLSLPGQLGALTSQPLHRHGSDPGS
`CCOC(=O)c1c(N)sc2c1CCCC2=O`: the “hERG current change (%, negative = inhibition) at 1uM” value is 16.9%.

In the case of `O=C(CCC1CCN(Cc2ccc(Cl)cc2)CC1)NC1CC1`, the “hERG current change (%, negative = inhibition) at 1uM” value is -45.9%.

On to `C=CCSc1nnc(NC(=O)COc2ccccc2)s1`, for which the “hERG current change (%, negative = inhibition) at 1uM” value stood at 2.2%.

For the compound `Cc1ccc[n+](C2C(c3ccc([N+](=O)[O-])cc3)C(C#N)=C([S-])NC2(O)C2CC2)c1` (centres unmarked), the “hERG current change (%, negative = inhibition) at 1uM” value came to 10.3%.

Consider `Cc1cc(-c2nnc(-c3cccc(C(F)(F)F)c3)o2)no1`, for which the “hERG current change (%, negative = inhibition) at 1uM” value is 12.1%.

As to `CC1CCC2(CC1)NC(=O)N(CC(=O)N1CCN(C(=O)c3ccco3)CC1)C2=O` (centres unmarked), the “hERG current change (%, negative = inhibition) at 1uM” value came to 1.86%.

With `CCOc1cc2c(cc1OCC)C(C(=O)O)C(c1cc(Br)c(O)c(OC)c1)N(C)C2=O` (centres unmarked), the “hERG current change (%, negative = inhibition) at 1uM” value worked out at 8.8%.

Consider `CN(Cc1ccccc1)C(=O)c1ccc(COc2ccccc2)cc1`, for which the “hERG current change (%, negative = inhibition) at 1uM” value worked out at 13%.

Regarding `COc1ccccc1N1CCN(CC(O)c2c(C)[nH]c3ccccc23)CC1` (centres unmarked), the “hERG current change (%, negative = inhibition) at 1uM” value is given as -19%.

For `CC(N)Cc1c[nH]c2cc3c(cc12)OCCO3.Cl` (centres unmarked), the “hERG current change (%, negative = inhibition) at 1uM” value was found to be 7.44%.

In the case of `Cc1cc(=O)[nH]c(SCC(=O)Nc2cc(S(=O)(=O)N3CCCC3)ccc2Cl)n1`, the “hERG current change (%, negative = inhibition) at 1uM” value was 10.9%.

Regarding `O=S(=O)(N1CCCCCC1)N1CCN(S(=O)(=O)N2CCOCC2)CC1`, the “hERG current change (%, negative = inhibition) at 1uM” value came to 9.27%.

With `COC(=O)CC1C(=O)NCCN1C(=S)NC(=O)C(c1ccccc1)c1ccccc1` (centres unmarked), the “hERG current change (%, negative = inhibition) at 1uM” value is recorded as 9.91%.

For `CCn1c(CC(=O)Nc2ccccc2OC)nnc1SCC(=O)Nc1ccccc1F`, the “hERG current change (%, negative = inhibition) at 1uM” value amounted to 6.57%.

On to `Cn1cnnc1SCC(=O)Nc1ccccc1Sc1ccccc1`, for which the “hERG current change (%, negative = inhibition) at 1uM” value was determined as 0.309%.

For the compound `O=C(NCCN1CCOCC1)/C(=C/c1ccc(Cl)cc1)NC(=O)c1ccccc1`, the “hERG current change (%, negative = inhibition) at 1uM” value was -83.1%.

For `CCn1ncc(/C=N\NC(=O)COc2ccccc2)c1C`, the “hERG current change (%, negative = inhibition) at 1uM” value was determined as 6.41%.

Turning to `CCCCCCn1c(N2CCC(C(N)=O)CC2)nc2c1c(=O)[nH]c(=O)n2C`, the “hERG current change (%, negative = inhibition) at 1uM” value came to 6.28%.

As for `Cc1cccc(N2C(=O)CC(NNc3nc4ccccc4s3)C2=O)c1` (centres unmarked), the “hERG current change (%, negative = inhibition) at 1uM” value came out at 12.7%.

Turning to `CC(C)Cc1nnc(NC(=O)C2CC(=O)N(Cc3ccccc3)C2)s1` (centres unmarked), the “hERG current change (%, negative = inhibition) at 1uM” value turned out to be 7.39%.

`CC1(C)Cc2ccccc2-c2nnc(SCC(=O)Nc3nc4ccccc4s3)n21`: the “hERG current change (%, negative = inhibition) at 1uM” value is on record as -6.96%.

As to `CCOC(=O)N1CCC(NS(=O)(=O)c2ccc(C)cc2)CC1`, the “hERG current change (%, negative = inhibition) at 1uM” value is 11.4%.

With `CC(=O)Nc1ccccc1Nc1nc(NCCO)nc(N2CCCC2)n1`, the “hERG current change (%, negative = inhibition) at 1uM” value amounted to 6.85%.

Turning to `CCCCCCNc1nc(NCc2ccco2)nc(OCC)n1`, the “hERG current change (%, negative = inhibition) at 1uM” value worked out at 11.9%.

In the case of `COc1ccc(C)cc1NC(=O)CN1C(=O)COc2ccc(S(=O)(=O)N3CCCCCC3)cc21`, the “hERG current change (%, negative = inhibition) at 1uM” value is listed as 13.4%.

`Oc1ccc2cc(Br)ccc2c1CN1CCCC1`: the “hERG current change (%, negative = inhibition) at 1uM” value was determined as 3.76%.

On to `CCOc1ccc(S(=O)(=O)NCCC(=O)NCCCSc2ccccc2)cc1`, for which the “hERG current change (%, negative = inhibition) at 1uM” value is 3.23%.

For the compound `CC(OC(=O)c1nc(-c2ccccc2)n(-c2ccccc2)n1)C(=O)Nc1cc(Cl)cc(Cl)c1` (centres unmarked), the “hERG current change (%, negative = inhibition) at 1uM” value was 4.36%.

`Fc1ccc(-c2nnc3ccc(N4CCc5ccccc5C4)nn23)cc1`: the “hERG current change (%, negative = inhibition) at 1uM” value was 2.66%.

In the case of `O=[N+]([O-])c1cccc2ccc(/C=C/c3cccc(Br)c3)nc12`, the “hERG current change (%, negative = inhibition) at 1uM” value is listed as 21%.

As for `O=C1N(CN2CCOCC2)c2ccccc2C1(O)c1c[nH]c2ccccc12` (centres unmarked), the “hERG current change (%, negative = inhibition) at 1uM” value is given as 16.7%.

On to `O=C1Cc2cc(NS(=O)(=O)c3ccc(F)cc3)cc3c2N1CCC3`, for which the “hERG current change (%, negative = inhibition) at 1uM” value worked out at 5.85%.

For the compound `Br.Cc1csc(=Nc2ccccc2)n1CCO`, the “hERG current change (%, negative = inhibition) at 1uM” value turned out to be 2.42%.

Regarding `COC(=O)c1ccc(NC(=O)C23CC4CC(C2)CC(n2cncn2)(C4)C3)cc1`, the “hERG current change (%, negative = inhibition) at 1uM” value is reported as -13%.

Take `Cc1cccc(/N=C/c2c(O)ccc3oc4c(c23)CCCC4)n1`: the “hERG current change (%, negative = inhibition) at 1uM” value is 1.89%.

In the case of `COc1cccc(CC(=O)OCC(=O)NC(C)c2ccc(F)cc2)c1` (centres unmarked), the “hERG current change (%, negative = inhibition) at 1uM” value was 10.4%.

With `N/C(CN1CCSCC1)=N\OCc1c(F)cccc1Cl`, the “hERG current change (%, negative = inhibition) at 1uM” value was 15.2%.

With `COc1ccc([C@H]2CC(=O)C=C(c3ccc(C(F)(F)F)c(C(F)(F)F)c3)C2)cc1OC`, the “hERG current change (%, negative = inhibition) at 1uM” value is 13.4%.

In the case of `Cc1ccc(C(=O)COc2ncnc3cc(Cl)ccc23)cc1`, the “hERG current change (%, negative = inhibition) at 1uM” value worked out at 0.0315%.

On to `O=C(O)CN1C(=O)/C(=C\c2cc(Br)ccc2OCc2ccc(F)cc2)SC1=S`, for which the “hERG current change (%, negative = inhibition) at 1uM” value was 5.18%.

For `NC(=O)c1c(NC(=O)c2ccc(F)cc2Cl)sc2c1CCC2`, the “hERG current change (%, negative = inhibition) at 1uM” value is 10.8%.

Turning to `CCn1cc(Br)c(C(=O)Nc2ccc(C(=O)OC(C)C)cc2)n1`, the “hERG current change (%, negative = inhibition) at 1uM” value is 12.1%.

As for `NC(=NCCc1c[nH]c2ccccc12)NS(=O)(=O)c1ccc(F)cc1`, the “hERG current change (%, negative = inhibition) at 1uM” value is on record as 13.8%.

`CCN(CC)S(=O)(=O)c1ccc(C)c(NC(=O)COC(=O)c2ccc(C)c(S(=O)(=O)N3CCOCC3)c2)c1`: the “hERG current change (%, negative = inhibition) at 1uM” value is recorded as -3.92%.
